Data set [1] deals with T1, hIL-1R-I (Homo sapiens, UniProt P14778).
T1 construct: purchased R&D Systems 269-1R/CF
T1 sequence (P14778 18-569): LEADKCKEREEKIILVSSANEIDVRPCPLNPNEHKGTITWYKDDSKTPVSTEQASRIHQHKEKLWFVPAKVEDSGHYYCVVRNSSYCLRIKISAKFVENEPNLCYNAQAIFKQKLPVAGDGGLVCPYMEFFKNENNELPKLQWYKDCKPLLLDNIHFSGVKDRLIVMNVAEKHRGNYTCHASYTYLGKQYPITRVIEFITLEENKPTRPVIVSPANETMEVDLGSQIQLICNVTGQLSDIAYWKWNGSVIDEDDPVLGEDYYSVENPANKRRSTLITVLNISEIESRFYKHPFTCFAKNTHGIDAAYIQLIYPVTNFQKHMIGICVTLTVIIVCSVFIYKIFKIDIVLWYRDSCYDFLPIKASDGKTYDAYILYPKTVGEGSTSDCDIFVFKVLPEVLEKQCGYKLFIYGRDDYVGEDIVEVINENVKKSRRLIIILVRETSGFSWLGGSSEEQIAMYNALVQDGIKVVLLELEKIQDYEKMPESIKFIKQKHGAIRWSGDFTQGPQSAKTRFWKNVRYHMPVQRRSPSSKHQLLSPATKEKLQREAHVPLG
Briefly: Biacore affinity/kinetic analysis of His6-tagged Z variants, human IL-1R-I. The class given is binding. Particulars: His6-Z polypeptides binding to human IL-1R-I, Biacore, Table 19; for Kd: read-out: KD. Here is the method:
Affinities (KD) for human and cynomolgus IL-1R-I were determined for His6-tagged Z variants using a Biacore 2000 instrument (GE Healthcare). hIL-1R-I or cIL-1R-I-His6 was immobilized on the carboxylated dextran layer in different flow cells of a CM5 chip (GE Healthcare, cat. no. BR100012). The immobilization was performed using amine coupling chemistry according to the manufacturer's protocol. Acetate pH 4.5 (GE Healthcare, cat. no. BR100350) was used for ligand dilution and HBS-EP (GE Healthcare, cat. no. BR100188) was used as running buffer. One flow cell surface on the chip was activated and deactivated for use as blank during analyte injections. In the kinetic experiment, HBS-EP was used as running buffer, the flow rate was 50 μl/min and the temperature was 25° C. The analytes, i.e. the Z variants, were each diluted in HBS-EP buffer to final concentrations of 40 nM and 10 nM, and were injected over the target chip surfaces for 2 min, followed by dissociation in running buffer for 8 min. Kinetic constants were calculated from the obtained sensorgrams using a 1:1 binding model, in the BiaEvaluation software 4.1 (GE Healthcare).
The kinetic constants (kon and koff) and affinities (KD) for human and cynomolgus IL-1R-I were determined for His6-tagged Z variants using a Biacore 2000 instrument (GE Healthcare). The experiment was run essentially as described in Example 2, using 100, 10 and 1 nM of the Z variants. The analyte injection time was 3 min followed by 15 min dissociation and 2×5 s glycine pH 3.0 (GE Healthcare, cat. no. BR100357), supplemented with 0.5 M NaCl, was used for regeneration of the surfaces between the cycles. Kinetic constants were calculated from the obtained sensorgrams of two or three concentrations of the respective Z variant, using a 1:1 binding model in the BiaEvaluation software 4.1 (GE Healthcare). His6-tagged Z12967 was included in the assay for comparison.
The kinetic constants (kon and koff) and affinities (KD) for human and cynomolgus IL-1R-I were determined for His6-tagged Z variants using a Biacore 2000 instrument (GE Healthcare). The experiment was run essentially as described in Example 5, using 48, 12, 3 and 0.75 nM of the Z variants. The analyte injection time was 3 min followed by 6 min dissociation and 2×5 s glycine pH 3.0, supplemented with 0.5 M NaCl, was used for regeneration of the surfaces between the cycles. Kinetic constants were calculated from the obtained sensorgrams of three or four concentrations of the respective Z variant, using a 1:1 binding model in the BiaEvaluation software 4.1 (GE Healthcare). His6-tagged Z12967 (SEQ ID NO:9), Z16065 (SEQ ID NO:268), Z16163 (SEQ ID NO:359) and Z18557 (SEQ ID NO:1205) were included in the assay for comparison.
Background: In SPR one partner is held on a chip, and binding of the other changes the refractive index at the surface.

Data set [2] in a line: Circular dichroism (CD) spectroscopy analysis, melting temperature and refolding. The class given is physicochemical. Particulars: for Melting temperatures (Tm): His6-tagged Z variants, CD variable temperature measurement, Table 21; for thermo-stability and α-helical content versus Z variants having alanine in position X5: His6-tagged, valine or isoleucine in position X5 of the BM (Example 9). Here is the method:
Purified His6-tagged Z variants were diluted to 0.5 mg/ml in PBS. For each diluted Z variant, a CD spectrum at 250-195 nm was obtained at 20° C. In addition, a variable temperature measurement (VTM) was performed to determine the melting temperature (Tm). In the VTM, the absorbance was measured at 221 nm while the temperature was raised from 20 to 90° C., with a temperature slope of 5° C./min. A new CD spectrum was obtained at 20° C. after the heating procedure in order to study the refolding ability of the Z variants. The CD measurements were performed on a Jasco J-810 spectropolarimeter (Jasco Scandinavia AB) using a cell with an optical path length of 1 mm.
CD was analyzed for His6-tagged Z variants, as described in Example 2.

Data set [3] can be described thus: In vivo pharmacokinetics of IL-1R-I binding fusion proteins in rats. Particulars: male rats. Set-up: species or system male Sprague-Dawley rats. How it is done:
The IL-1R-I binding fusion proteins PS10534, PS10535, PS10536, PS10537, PS10538 and PS10539 (see Table 22, SEQ ID NO:1646-1651) were evaluated in this study. All six test items were constituted as a solution in 25 mM sodium phosphate and 125 mM sodium chloride, pH 7.0.
The pharmacokinetic properties of the six fusion proteins were investigated in male Sprague-Dawley rats. For each test item, three rats were given an i.v. single dose of 15 mg/kg (2.5 ml/kg) injected in the lateral tail vein and another three rats were given a s.c. single dose of 30 mg/kg (5 ml/kg) injected in the neck region. Blood samples for serum preparation were collected pre dosing and at 5 and 20 min, 1, 4, 8, 24, 48, 72 and 96 hrs post i.v. dosing, or 20 min, 1, 4, 8, 24, 48, 72, 96 and 120 hrs post s.c. dosing.
Determination of fusion protein levels in rat serum samples was performed by enzyme-linked immunosorbent assay (ELISA). The ELISA assay employed the quantitative sandwich enzyme immunoassay technique.
In brief; a goat polyclonal anti-Z antibody recognizing the Z variant domain of the IL-1R-I binding fusion protein (produced in house, Affibody AB) was coated onto a microplate. Unbound polyclonal antibody was washed away and casein was added as blocking agent to reduce unspecific binding to the plastic surface. After removal of unbound casein by a second wash step, standards and samples were pipetted to the wells and any fusion protein present was bound to the immobilized antibody. After washing away any unbound substances, a HRP labeled Swine anti-rabbit antibody (Dako, cat. no. P0399) was added. Following a wash to remove any unbound anti-rabbit HRP reagent, a substrate solution was added to the wells and color developed in proportion to the amount of fusion protein bound in the initial step. The color development was stopped and the intensity of the color was measured.
The pharmacokinetic analysis was based on median serum concentration versus time data from each dose group. The observed maximum concentration (Cmax) and the time to maximum serum concentration (tmax) were taken directly from the bioanalytical data. Other pharmacokinetic parameters, i.e. clearance (CL), apparent clearance following s.c. administration (CL/F), apparent volume of distribution at steady-state (Vss), mean residence time (MRT) and terminal half-life (t1/2z), were estimated by non-compartmental analysis using Phoenix WinNonlin software version 6.3 (Pharsight Corp., USA). Estimation of the terminal slope following i.v. dosing was based on four data points, from 24 to 96 hrs. Estimation of the terminal slope following s.c. dosing was based on five data points, from 24 to 120 hrs. Calculation of the subcutaneous bioavailability (F) was performed using Microsoft Excel.

[4] abbreviates: intravenous single dose 15 mg/kg.
[5] abbreviates: subcutaneous single dose 30 mg/kg.

Positions count from the first letter of the chain named.

We go through nine molecules from patent US12116397B2, “IL-IR-I binding polypeptide” (Swedish Orphan Biovitrum AB (publ), priority 2017, dated 2024).

As usually defined, the koff is the rate constant with which the complex falls apart. A lower koff goes with a long-lived complex. For orientation: kon means a measure of how fast the partners come together. Higher therefore signals fast association. In general, Kd refers to the concentration at which binding is half-saturated. One may read the MRT as a mean duration of stay, worked out from the concentration-time curve. Usually Vss stands for the apparent volume that relates the amount in the body to the concentration in plasma or blood. Read a low Vss as confinement near the circulation. As a reminder, the Cmax is the maximum level reached in the sampled fluid or tissue.

B1: Z19180: IL-1R-I binding Z variant with valine or isoleucine in position X5 (protein)
chain: AQHDEALEVDAKYAKEVEIIQMEIFHLPNLTRRQYTAFIRKLLDDPSQSSELLSEAKKLNDSQAPKVDYVLAEAKVLANRELDKYGVSDYYKNLINNAKTVEGVKALIDEILAALPYVPG
As to B1, in data set [1], the off-rate constant (koff) amounted to 0.0031 s⁻¹, the kon worked out at 2.2e+07 M⁻¹ s⁻¹ and the Kd was determined as 0.14 nM. Moreover, in data set [2], the “Melting temperatures (Tm)” value was found to be 58 °C; the “thermo-stability and α-helical content versus Z variants having alanine in position X5” value is recorded as “not substantially different”.

B2: Z19075: IL-1R-I binding Z variant with valine or isoleucine in position X5 (protein)
chain: B1 chain with M22Y, H26G, R33K
Consider B2, for which, in data set [1], the koff was 0.0064 s⁻¹, the kon stood at 1.4e+07 M⁻¹ s⁻¹ and the equilibrium dissociation constant (Kd) was found to be 0.45 nM. Further, in data set [2], the “Melting temperatures (Tm)” value was 56 °C; the “thermo-stability and α-helical content versus Z variants having alanine in position X5” value is recorded as “not substantially different”.

B3: Z19182: IL-1R-I binding Z variant with valine or isoleucine in position X5 (protein)
chain: B1 chain with I19A, H26Q
B3: in data set [1], the koff is 0.0055 s⁻¹, the kon was found to be 2.1e+07 M⁻¹ s⁻¹ and the Kd stood at 0.26 nM. In addition, in data set [2], the “Melting temperatures (Tm)” value was determined as 62 °C; the “thermo-stability and α-helical content versus Z variants having alanine in position X5” value is listed as “not substantially different”.

B4: Z18769 (protein)
chain: B1 chain with I19E, I20V
B4: in data set [1], the koff was determined as 0.0031 s⁻¹, the kon was 1.9e+07 M⁻¹ s⁻¹ and the Kd was 0.16 nM. In addition, in data set [2], the “Melting temperatures (Tm)” value was determined as 59 °C.

B5: Z19158: IL-1R-I binding Z variant with valine or isoleucine in position X5 (protein)
chain: B1 chain with V17T, I19E, H26A
For B5, in data set [1], the koff was 0.0044 s⁻¹, the kon was determined as 2.7e+07 M⁻¹ s⁻¹ and the Kd was found to be 0.16 nM. Moreover, in data set [2], the “Melting temperatures (Tm)” value came to 55 °C; the “thermo-stability and α-helical content versus Z variants having alanine in position X5” value was “not substantially different”.

B6: Z18920: IL-1R-I binding Z variant with valine or isoleucine in position X5 (protein)
chain: B1 chain with V17T, I19E, H26R
As for B6, in data set [1], the koff amounted to 0.0055 s⁻¹, the association rate constant (kon) worked out at 3.6e+07 M⁻¹ s⁻¹ and the Kd amounted to 0.15 nM. Besides, in data set [2], the “Melting temperatures (Tm)” value is 56 °C; the “thermo-stability and α-helical content versus Z variants having alanine in position X5” value is given as “not substantially different”.

B7: Z18770 (protein)
chain: B1 chain with V17T, I19R, I20V, H26S
For the molecule B7, in data set [1], the koff was found to be 0.005 s⁻¹, the kon amounted to 3e+07 M⁻¹ s⁻¹ and the Kd amounted to 0.17 nM. Moreover, in data set [2], the “Melting temperatures (Tm)” value came to 59 °C.

B8: PS10538: Fc fused IL-1R-I binding Z variant (protein)
chain: AEAKYAKELEAIQMEIFHLPNLTRRQYTAFIRKLLDDPSQSSELLSEAKKLSESQAPKASGGGGSGGGGS[sequence of human IgG1 Fc omitted]
modifications: Engineered IL-1R-I binding polypeptide
B8: in data set [3] (setting [4]), the MRT came to 61.6 h, the distribution volume (Vss) stood at 0.146 L/kg and the t1/2z was 50.4 h. In data set [3] (setting [5]), this molecule yielded a Cmax of 796 nM, an F of 47.2%, an MRT of 91.7 h and a Vz/F of 0.509 L/kg. Further, in data set [3] (setting [5]), the t1/2z was determined as 59.0 h and the tmax was 24 h.

B9: PS10539: Fc fused IL-1R-I binding Z variant (protein)
chain: B8 chain with L9T, I12V, H18A
modifications: Engineered IL-1R-I binding polypeptide
As to B9, in data set [3] (setting [4]), the MRT was determined as 55.5 h, the Vss turned out to be 0.113 L/kg and the t1/2z was 48.3 h. Further, in data set [3] (setting [5]), the Cmax stood at 886 nM, the F is listed as 52.2%, the MRT was determined as 86.2 h and the Vz/F turned out to be 0.424 L/kg. In data set [3] (setting [5]), this molecule came in with a t1/2z of 54.3 h and a tmax of 24 h.
